# Laboratory results taken from paper PMC12136788.
# The other results are listed elsewhere or left out.
# T1: UNK ZnF1-6 (called full-length) (human, UniProt Q9C0B0 30-357)
# T1 sequence: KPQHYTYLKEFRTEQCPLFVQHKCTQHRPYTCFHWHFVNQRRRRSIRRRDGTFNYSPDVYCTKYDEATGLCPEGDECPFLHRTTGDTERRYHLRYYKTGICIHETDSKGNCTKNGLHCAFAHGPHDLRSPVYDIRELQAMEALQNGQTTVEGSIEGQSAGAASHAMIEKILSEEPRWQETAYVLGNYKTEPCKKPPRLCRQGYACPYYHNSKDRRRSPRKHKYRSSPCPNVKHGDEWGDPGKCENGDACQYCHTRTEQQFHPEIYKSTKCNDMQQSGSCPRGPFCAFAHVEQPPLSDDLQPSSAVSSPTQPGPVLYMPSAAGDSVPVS
# B1: chr12:3284911:3285012:+|3pUTR|ENSG00000011105|msi1|FALSE|unique (ssRNA)
# RNA: GGGAGUUCUACAGUCCGACGAUCGGAGGACAGAACCGUUGGCAUUAUCAGGAUUCGUGUUUUGUGGGGGUGGGAGUGGAGAGUAGGGUGGUCUUGUGAGUUGUGCAGGGUGAAGACCGCUUCCCUGAGACAGGGGCAGUGGUGCAACAGAGGAUUGAGCAUCA
# B2: chr3:23954599:23954720:+|CDS|ENSG00000174738|unk|FALSE|unique (ssRNA)
# RNA: GGGAGUUCUACAGUCCGACGAUCAGUGAGGGUUCUGAGAAUAGUUUCCAGUCCUCCUCCUCUUCUGUUCCAUCUUCUCCAAAUAGCUCUAAUUCUGAUACCAAUGGUAAUCCCAAGAAUGGUGAUCUCGCCAAUAUUGAAGGCCAACAGAGGAUUGAGCAUCA
# B3: chr17:69016252:69016390:-|CDS|ENSG00000154258|control|control|control (ssRNA)
# RNA: GGGAGUUCUACAGUCCGACGAUCUUUUCAAUAGCAUGUAAUACAAAACGGCUGAAUUGCUUUCCUGUCCUCCUGGAUGUCAUUAGCAAUGGACUACUUGGAAUUUUUAAUUCGUCAGAACACAUUCAGACUGACAGAAGCACACAACAGAGGAUUGAGCAUCA
# B4: chr22:17178789:17181576:-|three_prime_utr|ENSG00000093072|control|control|control (ssRNA)
# RNA: GGGAGUUCUACAGUCCGACGAUCGUUGGAGAGUGAGAAAAAUACUUUCAUGGAAAUCUGGAAGAAGAGAUGGGAUAAGUUCAUAGCAGAUGUGGCUACAAAGUGAGGAGAAGCUAGCCAGCCCUCUACAAGCUGUCUUCUUGCCAACAGAGGAUUGAGCAUCA
# B5: chr2:32415736:32415837:+|CDS|ENSG00000115760|unk|total|mutant (ssRNA)
# RNA: GGGAGUUCUACAGUCCGACGAUCGCAGAGGAAUGUCCGUGGUGGAUAUUCCGUGCUUUAUAAAAUGAAUUAUGCCACUCGGACCGUGACUUCCGAAGAGGAGCCAAUAAAAAUACAACAUAUCAAAGAUCCCCAGGACACAAUCAACAGAGGAUUGAGCAUCA
# B6: chr3:187234081:187235683:-|three_prime_utr|ENSG00000127241|control|control|control (ssRNA)
# RNA: GGGAGUUCUACAGUCCGACGAUCACUUCCGACAGCACACUCCACAUUACUUAUCAGACCAUAUGGAAUGGAACACACUGACCUAGCGGUGGCUUCUCCUACCGAGACAGCCCCCAGGACCCUGAGAGGCAGAGUGUGGUAUAGCAACAGAGGAUUGAGCAUCA
# B7: chr12:52514574:52514941:-|three_prime_utr|ENSG00000186081|control|control|control (ssRNA)
# RNA: GGGAGUUCUACAGUCCGACGAUCCCUGCUGCAAGUCACUGCCUUCCAAGUGCAGCAACCCAGCCCAUGGAGAUUGCCUCUUCUAGGCAGUUGCUCAAGCCAUGUUUUAUCCUUUUCUGGAGAGUAGUCUAGACCAAGCCAAUUCAACAGAGGAUUGAGCAUCA
# B8: chr1:37590682:37590793:-|CDS|ENSG00000134697|unk|total|mutant (ssRNA)
# RNA: GGGAGUUCUACAGUCCGACGAUCAAGCAAAGCAAGUUACCAAUGUCUCUUCUCCAUGAUCGAAUCCGGCCUCAUGUAAGAUGCCGGAUAUCCCUGGUGAUGGAAUUUCCUGGGCAAACUCCAUGCAGAUCCCUCUCUAACAUACAACAGAGGAUUGAGCAUCA
# B9: chr6:122432834:122432935:+|3pUTR|ENSG00000025156|msi1|FALSE|unique (ssRNA)
# RNA: GGGAGUUCUACAGUCCGACGAUCAUAUAUAGAAAGAUCGGGGGUGGGAUGGGAUGGAGUGAGCCCCAUCCAGUUAGUUGGACUAGUUUUAAAUAAAGGUUUUCCGGUUUGUGUUUUUUUGAACCAUACUGUUUAGUAAAAUAACAACAGAGGAUUGAGCAUCA
# B10: chr3:125228010:125228111:-|3pUTR|ENSG00000163848|msi1|total|mutant (ssRNA)
# RNA: GGGAGUUCUACAGUCCGACGAUCAGUUCUCUUCAUAUUUCAUAACUACAUUUCAAUAAUUCUAAACUUUCUACAUUGAUUUUCCGAUACUUAUUUUUCAAGCUUGGUUUCUCAGCUGAUCAGAUGAAUUUAUUCAACUUCAAUCAACAGAGGAUUGAGCAUCA
# B11: chr6:143501988:143502101:-|CDS|ENSG00000001036|unk|FALSE|unique (ssRNA)
# RNA: GGGAGUUCUACAGUCCGACGAUCUUCAUGUGGAGGAAAUCUUUUGAUGAAUAUUGGGCCCACACUAGAUGGCACCAUUUCUGUAGUUUUUGAGGAGCGACUGAGGCAAAUGGGGUCCUGGCUAAAAGUCAAUGGAGAAGCUAUCAACAGAGGAUUGAGCAUCA
# B12: chr2:240467638:240467855:+|3pUTR|ENSG00000063660|msi1|FALSE|unique (ssRNA)
# RNA: GGGAGUUCUACAGUCCGACGAUCGGACGGAGGUCCCCGGUUGCUGGUCAGGUCCCCAUGGCUUGUUCUCUGGAACCUGACUUUAGAUGUUUUGGGAUCAGGAGCCCCCAACACAGGCAAGUCCACCCCAUAAUAACCCUGCCACAACAGAGGAUUGAGCAUCA
# B13: chr9:134030564:134030586:-|3pUTR|ENSG00000169925|msi1_unk|total|mutant (ssRNA)
# RNA: GGGAGUUCUACAGUCCGACGAUCCCUCUGACAGUCUUUUGGGAAAGAGUAACACCCACAUACAGAAUUUGUCACAUCCAGAGCCGCACUGUUCCUUAAUACUGGCAUAAUGCUUCCAGGAAGUUUUUCUUUUUUAUAUUUAAACAACAGAGGAUUGAGCAUCA
# B14: chr4:56461171:56461272:+|3pUTR|ENSG00000128050|msi1|FALSE|bound_elsewhere (ssRNA)
# RNA: GGGAGUUCUACAGUCCGACGAUCCUUCUGUAACCACAGUGACUACAAGUAGUUCUUUCUCUAUUGAAUUAUUAGGUCCAGAAUAGAAGAUGUCAUUGUACACUUUAUUUCCCUCACACUGUGUUAUGCUCUGAUGUGCUAUGCCAACAGAGGAUUGAGCAUCA
# B15: ENSG00000132661:stop:overlap|stop_codon|ENSG00000132661|stop_codon|NA|stop_codon (ssRNA)
# RNA: GGGAGUUCUACAGUCCGACGAUCCCAGCAACACAGUGUGGAAGAUCGCAAGUGACUGCUUCCGCUUCCAGGACUGGGCCAGCUAGUGGGGGUGGCAGAGGUCUCUUUGCUUCAUUCAGCCCUAGCUCUGUAGAGAAAUGCAAACAACAGAGGAUUGAGCAUCA
# B16: ENSG00000070961:be:win_51|CDS|ENSG00000070961|bound_else_gene|NA|bound_elsewhere_windowed (ssRNA)
# RNA: GGGAGUUCUACAGUCCGACGAUCUUUGAAGGAAGCUAAUCAUGAUGGAGACUUUGGAAUUACGCUCGCAGAGCUGCGGGCUCUCAUGGAGCUCAGGUCCACAGAUGCAUUACGAAAAAUACAGGAAAGCUAUGGAGAUGUCUACAACAGAGGAUUGAGCAUCA
# B17: chr10:117282838:117282939:-|3pUTR|ENSG00000165650|unk|FALSE|bound_elsewhere (ssRNA)
# RNA: GGGAGUUCUACAGUCCGACGAUCCCCCUUGUGUUAUUUUUCUUCCUCUUGGUUUUUGAAUUAGUGUUAAAUAGAAUACUGUCUAGAUUCUUAAAAUAUUUUCAUUUCCAUCAUGGUUAUAACAAAUUUGCUGCAUGCCCAAACCAACAGAGGAUUGAGCAUCA
# B18: chr5:139396562:139396955:-|CDS|ENSG00000170469|control|control|control (ssRNA)
# RNA: GGGAGUUCUACAGUCCGACGAUCAGGGGUCCACAAGGUGGGGGCUUGUAGCCUAGGGGAGGAGCUGGGUCUUUGUUGUCUGGUAGGCACCACCGCUUCCUUUGGGUAUUUAAUCCCUUCCUAUAUAAACAGCCCUGGUUACCCCAACAGAGGAUUGAGCAUCA
# B19: chr4:119293926:119294030:+|3pUTR|ENSG00000145390|unk|FALSE|unique (ssRNA)
# RNA: GGGAGUUCUACAGUCCGACGAUCGAUGGAAUUUAAUUUUGCUCCUAGAAUUUUUGUCUUCAGAAUAUCUAGUUAAGAUAAAUUAGGCCUUUGACUAUUAUAGGUAUUCAUAAAUGCUACUUUAGCCAUGUAAGUUAAAAAGUUCAACAGAGGAUUGAGCAUCA
# B20: chr8:41543231:41543332:+|3pUTR|ENSG00000147536|msi1|total|mutant (ssRNA)
# RNA: GGGAGUUCUACAGUCCGACGAUCAAACCAUUAUUAAAUUUCCAUUCUGCAGCAGAAGGCACCUCUGGACGGCUCCCGGCUUGCCGUUUAAUGAAGUAUGUGCUCCCUGCUGUUAACCCGCAGCCCUCCCCAACUCUCCAGCAGCAACAGAGGAUUGAGCAUCA
# B21: chr5:32419879:32419980:-|CDS|ENSG00000056097|msi1|total|mutant (ssRNA)
# RNA: GGGAGUUCUACAGUCCGACGAUCAGUUACUGCUGCCUAUGCACCAGCAGCCGCCACAGUUGCAGUUGCCAGGCCUGCUCCAGCCGCUGUUGCAGCUGCUGCAACAGCUGCUGCUUAUGGAGGCUACCCCACUGCACACACAGCCAACAGAGGAUUGAGCAUCA
# B22: chr1:37534448:37537747:-|three_prime_utr|ENSG00000163877|control|control|control (ssRNA)
# RNA: GGGAGUUCUACAGUCCGACGAUCCACAUGCCUGCAGGCAUUUGUUUUCAGAACAGUCUCACCAAUUACAACACACCGUGUUUUAGUAGAAGUGUUGUGGUUUUAGUUGGUGCUUUCAGAACUGCUGCCUAGGAAACUAUAAACCAACAGAGGAUUGAGCAUCA
# Target: T1, UNK ZnF1-6 (called full-length)
# Experiment: nsRBNS (natural sequence RNA bind-n-seq); RBNS binding buffer (assumed for nsRBNS): 25 mM Tris pH 7.5, 150 mM KCl, 3 mM MgCl2, 0.01% Triton X-100, 500 ug/ml BSA, 20 U/ml SUPERase-In, 4 C; UNK is unkempt and MSI1 is Musashi-1; names of the RNAs are library labels; protein concentration not given here; high values mean tight binding
row,Binder,binding signal [enrichment R]
1,B1,1.2
2,B2,2.36
3,B3,0.516
4,B4,0.965
5,B5,0.902
6,B6,0.798
7,B7,0.811
8,B8,0.443
9,B9,9.25
10,B10,15.6
11,B11,1.04
12,B12,0.854
13,B13,0.686
14,B14,0.758
15,B15,0.721
16,B16,0.507
17,B17,3.48
18,B18,2.66
19,B19,2.84
20,B20,1.48
21,B21,0.454
22,B22,0.589
